Data reported in ChEMBL document CHEMBL1201862, “PubChem BioAssay data set” (2004).
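Interpolation was linear, between the two tested concentrations surrounding the appropriate level; five concentrations were tested over 48 hours in 96-well plates. The concentration for 50% growth inhibition is given as GI50.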 Calls of active or inactive are those of the source. Cut-off read from the data, not from the text of the source: active = GI50 up to about 1.1 µM and inactive = higher.

What follows are compounds tested on NCI-H322M (assay: NCI-60 cell line screen, 48 h).

Structure (SMILES)	GI50
COc1cc(O)c2c(=O)c3ccccc3n(C)c2c1	inactive: > 100 µM
Cc1ccc2ccccc2c1CSc1nc(N)nc2c1ncn2CC(C)C	inactive: 56.2 µM
NCC(O)CN.Oc1c(Cl)c(Cl)c(Cl)c(Cl)c1Cl	inactive: 19.1 µM
CC1(C)SC2C(NC(=O)Cc3ccccc3)C(=O)N2C1C(=O)O (centres undefined)	inactive: > 100 µM
O=c1oc2ccc3ccccc3c2cc1-c1nnc(Nc2ccccc2)s1	inactive: > 100 µM
Clc1ccc2c(SCC3CO3)c3ccccc3nc2c1 (centres undefined)	inactive: 4.95 µM
CN(C1=NS(=O)(=O)N=C(N(C)c2ccccc2)O1)c1ccccc1	inactive: 20.4 µM
CCOc1ccccc1/N=N/c1c(-c2ccccc2)nn(C(=O)CC(=O)Nc2cccc(C)c2)c1-c1ccccc1	inactive: > 100 µM
O=C(Nc1ccccc1Cl)c1ccc([N+](=O)[O-])cc1	inactive: > 100 µM
O=C1[C@@H](c2ccc(Cl)cc2)[C@H]2CC=C[C@H]2N1O	inactive: > 100 µM
Cc1cnc[nH]c1=O	inactive: > 100 µM
O=S(=O)(NNc1ccccc1)c1ccccc1	inactive: 29.4 µM
CC(/C=C/c1ccccc1)=N\N=C(C)\C=C\c1ccccc1	inactive: > 100 µM
CC(=O)OCCC[C@@H]1C(=C(C)C)CCC2[C@@]1(C)CC[C@@]1(C)C[C@](C)(CCC=C(C)C)CC[C@]21C (some centres undefined)	inactive: > 100 µM
Nc1ccc(OCC(O)N2C(=O)c3ccccc3C2=O)cc1 (centres undefined)	inactive: > 100 µM
CS(=O)(=O)CC(=O)c1ccccc1	inactive: > 100 µM
O=C1CCCc2cc3c(cc21)CCC3C(=O)O (centres undefined)	inactive: > 100 µM
CC(=O)N1CCC2(C=Nc3ccccc32)CC1	inactive: > 100 µM
Cc1ccc(-c2cc(=S)n(-c3ccccc3)c3[nH]c(=S)n(-c4ccccc4)c(=N)c23)cc1	inactive: > 100 µM
CC1=NN(c2ccccc2)C(=O)C1=C1SCCS1	inactive: > 100 µM
CCOC(=O)c1nc2ccccc2nc1NCc1ccc(Cl)cc1Cl	inactive: > 100 µM
Cc1c2cccc-2c(OCCO)cc2c3ccccc3n(C)c12	inactive: 11.8 µM
CCCC(=O)OC1C(CO)OC(n2cc(F)c(=O)[nH]c2=O)C1F (centres undefined)	inactive: 31 µM
CCSc1nnc2c(-c3ccccc3)n[nH]c2n1	inactive: > 100 µM

Structure (SMILES)	GI50
Cc1ccc(N2CN3OC(=O)N(c4ccccc4)[C@@]3(c3ccccc3)C2)cc1	inactive: 56 µM
Cc1ccc(C(=O)O/N=C2/CCCC/C2=C\c2ccccc2)cc1	inactive: 50.4 µM
CO[C@H](c1ccccc1)[C@H](C)N(C)c1ccc2ccccc2c1C1=NC(C)(C)CO1	inactive: 23.4 µM
O=C(Cc1ccccc1)NN1C(=O)/C(=C\c2cccc([N+](=O)[O-])c2)S/C1=N\c1ccccc1	inactive: > 100 µM
N=c1oc2c(Cl)cc(Cl)cc2cc1C(=O)Nc1cccc2ccccc12	inactive: 4.71 µM
NC(=O)c1ccc(Cl)c([N+](=O)[O-])c1	inactive: > 100 µM
O=[N+]([O-])C1=Cc2cc(Cl)ccc2OC1c1cccc2ccccc12 (centres undefined)	inactive: 1.67 µM
Cc1ccc(C2=CC(=O)c3ccccc3C2=O)n1-c1ccccc1	inactive: > 100 µM
Cc1cc2nc(C#N)c(N3CCN(c4ccc([N+](=O)[O-])cc4)CC3)nc2cc1C	inactive: 67.6 µM
C[Si](C)(C)/C=C/CN1C(=O)CCC1O (centres undefined)	inactive: > 100 µM
COc1cc(CNC(=O)CCCCCCCCCCSC#N)ccc1O	inactive: 14.8 µM
NC(=O)/C(=N\NC(=O)C[n+]1ccccc1)C1NC(=O)NC1=O (centres undefined)	inactive: > 100 µM
C=CCn1c(=O)c2ccccc2[n+]2c(-c3cccc([N+](=O)[O-])c3)csc12	inactive: 63.4 µM
COc1ccc(NC(=O)C(=O)C2NC(=S)NC2=O)c(OC)c1 (centres undefined)	inactive: > 100 µM
O=C(/C=C\c1ccc([N+](=O)[O-])cc1)c1ccccc(=O)c1O	inactive: 1.32 µM
C=C1C(=O)OC2/C=C(\C)C(O)/C=C\C(C)(O)CC(OC(=O)/C(C)=C/C)C12 (centres undefined)	inactive: > 100 µM
O=C(NCCCN1CCN(CCCNC(=O)c2cc(-c3ccccc3)nc3ccccc23)CC1)c1cc(-c2ccccc2)nc2ccccc12	inactive: 17.6 µM
CC1(C)CC(=O)C=C(NC(=O)c2ccccc2)C1	inactive: > 100 µM
CC1(C)OC[C@@]2([C@@H]3CC[C@@H](C3)C2(C)C)N1O	inactive: > 100 µM
O=C(O)c1ccccc1CC1Cc2ccccc2C1	inactive: > 100 µM
CCOC(=O)c1ncn2c1[nH]c(=O)c1ccccc12	inactive: > 100 µM
CC(=O)OC[C@@H]1[C@H]2CC[C@]3(C)[C@@H](OC(C)=O)CC[C@H]3[C@@H]2CC[C@H]1C1(C)SCCS1	inactive: > 25 µM
ClCc1nc2cc(Cl)ccc2o1	inactive: 13.4 µM
COc1cc(OC)c2c(=O)c(OC)c(-c3ccc4c(c3)OCO4)oc2c1	inactive: 69.8 µM

Structure (SMILES)	GI50
O=C(O)CCC(NC(=O)c1ccc(CNc2nc3cc(C(F)(F)F)ccc3nc2C(=O)O)cc1)C(=O)O (centres undefined)	inactive: > 100 µM
Cc1cc(OCC(=O)N/N=C/C(Br)=C/c2ccccc2)nc(SCC(=O)N/N=C/C(Br)=C/c2ccccc2)n1	inactive: > 100 µM
CCCCC(Sc1cc(Cl)c(C)cc1S(=O)(=O)Nc1nc(N)n[nH]1)C(=O)OC (centres undefined)	inactive: > 10 µM
COc1ccc(/C=N\N2C(=O)Cc3ccccc32)cc1	inactive: 46.8 µM
CC(=O)C1=C(C)N(c2ccccc2)C2(O)C=CC(O)=C3C(=O)c4ccccc4C(=O)C312 (centres undefined)	inactive: 18.3 µM
CC(C)N1CC2CC(CN(C(=O)c3ccc(Cl)cc3)C2)C1	inactive: > 100 µM
C/C=C/[C@@H](C(=O)OC)N1C(=O)c2ccccc2[C@H]1O	inactive: > 100 µM
COc1cccc(C(C#N)NNC(=O)c2c(Cl)c(Cl)c(Cl)c(Cl)c2-c2nc3cc(C(=O)c4ccccc4)ccc3[nH]2)c1O (centres undefined)	inactive: 11.9 µM
NC(=O)c1cc2ccccc2o/c1=N/c1ccccc1	inactive: > 100 µM
CCOC(=O)CCC(NC(=O)c1ccc(N2CCN(c3c(C)nc(N)nc3N)CC2)cc1)C(=O)OCC (centres undefined)	inactive: 10.4 µM
NC(=O)c1cc(C2OC(CO)C(O)C2O)nn1-c1ccc([N+](=O)[O-])cc1 (centres undefined)	inactive: > 100 µM
OCc1ccc2c(c1)CC1(Cc3ccc(/C=N/O)cc3C1)C2 (centres undefined)	inactive: 9.18 µM
CCC1(N=[N+]=[N-])C(=O)c2ccccc2N(C)C1=O (centres undefined)	inactive: > 100 µM
OC12CC/C(=N/OCc3ccccc3)CC1c1ccccc12 (centres undefined)	inactive: > 100 µM
Nc1ccccc1OCCCOc1ccccc1N	inactive: > 100 µM
COc1cc([C@@H]2OC(=O)C3C2C(=O)O[C@H]3c2ccc(O)c(OC)c2)ccc1O (some centres undefined)	inactive: > 100 µM
COc1ccc(C(=O)Cc2c(C(=O)c3ccccc3)c3ccccc3n2C(=O)c2ccccc2)cc1	inactive: 47.5 µM
CCOC(=O)c1c(O)nc2cccc3c2c1-c1cccnc1S3	inactive: 36.5 µM
COc1ccccc1N1C(=O)/C(=C\c2cccc(Oc3ccccc3)c2)S(=O)(=O)C1c1ccccc1 (centres undefined)	inactive: > 100 µM
N=C(CSSCC(=N)NCC12CC3CC(CC(C3)C1)C2)NCC12CC3CC(CC(C3)C1)C2	inactive: 14 µM
CC(Cc1ccccc1)NC1=NCCO1 (centres undefined)	inactive: 78.5 µM
CO[C@@H]1C[C@H]2[C@@H]3CC[C@H]([C@@H](C)CO)[C@@]3(C)CC[C@@H]2[C@@]2(C)CC[C@H]3C[C@]312	inactive: 75.9 µM
CSc1c(C#N)c(N)nc2c(/N=N\c3ccc(Cl)cc3)c(N)nn12	inactive: 5.43 µM
O=C(N/N=C/c1ccccc1)c1c(-c2cccnc2)cnc2ccccc12	inactive: > 100 µM

Structure (SMILES)	GI50
C/C(=N\NC(=S)NCCCNC(=S)N/N=C(\C)c1ccccn1)c1ccccn1	inactive: 2.62 µM
Cc1ccccc1-n1c(=O)c2ncn(CCCl)c2n(-c2ccccc2C)c1=S	inactive: > 100 µM
Cc1n[nH]c(=O)n1/N=C/c1ccncc1	inactive: > 100 µM
COc1cc(-c2cc(-c3cc([N+](=O)[O-])c(/C=N/NC(=O)c4ccncc4)o3)ccc2OC)ccc1C	inactive: > 100 µM
C/C(=C\c1ccccc1)n1c(=O)cc(C)n1C	inactive: > 100 µM
O=S1(=O)OCCOS(=O)(=O)C1(I)I	inactive: 22.3 µM
CC(C)=CCCC1(Sc2ccccc2)C(=O)OCC1C=C(C)C (centres undefined)	inactive: 12.1 µM
O=C1C=C/C(=N/c2cccc3c(/N=C4/C=CC(=O)O4)cccc23)O1	inactive: > 100 µM
Cc1ccc(NC(=O)C(=O)CC(=O)c2c(C)[n+]([O-])c3ccccc3[n+]2[O-])cc1	inactive: 21.2 µM
CCOC(=O)c1cc(OC(=O)CC)c2c(OC)ccc(OC)c2c1	inactive: > 100 µM
COC(=O)Cc1c2n(c3ccccc13)C(=O)N1c3ccccc3C(CC(=O)OC)C21 (centres undefined)	inactive: > 100 µM
CC(C)OP(=O)(OC(C)C)/C(=N/Nc1ccc([N+](=O)[O-])cc1)NCCN/C(=N\Nc1ccc([N+](=O)[O-])cc1)P(=O)(OC(C)C)OC(C)C	inactive: > 100 µM
NC(=O)NCCCC(NC(=O)OCCCCCCn1ccc(=O)[nH]c1=O)C(=O)O (centres undefined)	inactive: > 100 µM
C=C(c1ccccc1)[C@@]1(O)CC[C@@H]1N(CC#N)Cc1ccccc1	inactive: 97.5 µM
Cc1ccc(S(=O)OC2C3CC4CC(C3)CC2C4)cc1 (centres undefined)	inactive: > 100 µM
N/C(=N\c1ccc(Cl)cc1)NS(=O)(=O)c1cccc2nsnc12	inactive: 30.3 µM
OC(COC(c1ccccc1)(c1ccccc1)c1ccccc1)C(O)CC1SCCS1 (centres undefined)	inactive: 21 µM
CC1CCC2(C)C(CC=C(C=O)C2(O)C=O)C12CO2 (centres undefined)	inactive: 4.34 µM
NC(=O)c1c[se]c(C2OC(CO)C(O)C2O)n1 (centres undefined)	inactive: 6.04 µM
CCOC(=O)Nc1cc2c(c(N)n1)N=C(c1ccccc1)CN2	active: 0.01 µM
Nc1nccc(Nc2ccc(S(N)(=O)=O)cc2)n1	inactive: > 100 µM
O=C(CCc1ccc(O)c(O)c1)c1ccc(O)c(O)c1O	inactive: 59.3 µM
